± gives the standard deviation of the averaged measurements. Over roughly 33,000 sequences, “E-score (dimensionless, -0.5 to 0.5)” has its median near -0.046; the highest 2% begin near 0.36. Some of the results follow.
These sequences were tested on T1, SpTbr T-box DNA-binding domain (GST fusion) (assay: PBM E-score of 8-mer (E-score (dimensionless, -0.5 to 0.5)); Tbr is Tbrain of the sea star Patiria miniata (Pm) or the sea urchin Strongylocentrotus purpuratus (Sp); higher = stronger binding preference; most listed sequences are background and not binding sites). Conditions: the construct has about 5 more residues each side.
T1 sequence: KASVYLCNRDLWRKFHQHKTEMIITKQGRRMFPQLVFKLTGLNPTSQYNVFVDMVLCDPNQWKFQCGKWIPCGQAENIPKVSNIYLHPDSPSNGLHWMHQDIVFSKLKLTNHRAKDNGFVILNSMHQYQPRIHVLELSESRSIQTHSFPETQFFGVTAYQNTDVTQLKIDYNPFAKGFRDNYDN
Method in brief: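 Primer extension turned Universal Agilent oligonucleotide arrays double-stranded. They were incubated with 200 nM protein in PBS (pH 7.5); the protein was a GST-fused Tbr T-box DNA-binding domain expressed in BL21 E. coli at 20 °C and purified on glutathione. Every ungapped 8-mer was scored from the scanned, quantified probe intensities, and the Universal PBM Analysis Suite gave each an enrichment E-score averaged over duplicate arrays.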

Sequence	PBM E-score of 8-mer
CAAGCGTG	0.213 ± 0.018
TCTATACA	-0.0907 ± 0.061
GACTAAAC	-0.193 ± 0.029
CCGTCCCA	-0.129 ± 0.0072
ATGATAAT	-0.0559 ± 0.068
ATGCTCGA	-0.162 ± 0.011
GGCCTGGA	-0.38 ± 0.01
CACAAGTC	0.166 ± 0.039
ACGGATAC	-0.141 ± 0.024
CTTTGACA	0.174 ± 0.035
CACCAGCC	0.0355 ± 0.0032
CTTCGCAA	0.341 ± 0.029
GGGCCATA	-0.153 ± 0.085
TATAGCGA	0.0409 ± 0.011
AAACATGA	-0.0353 ± 0.018
TCTCTTAA	-0.284 ± 0.033
ACCGGTAG	-0.036 ± 0.041
GATGGGTA	-0.118 ± 0.033
AAAGTGGC	0.205 ± 0.025
GCTCATAA	-0.0895 ± 0.047
ATCAGGTC	-0.171 ± 0.075
AATAATCG	0.0135 ± 0.016
AGTGTCCC	0.196 ± 0.038
ATCTTCCA	-0.111 ± 0.0036
GCGACTAA	0.159 ± 0.035

Sequence	PBM E-score of 8-mer
CGGTTGTC	0.143 ± 0.029
GCCTGTAA	0.0682 ± 0.055
ATATCTAC	-0.212 ± 0.02
AGCTCGAC	0.17 ± 0.012
CCCAGGCC	-0.228 ± 0.045
ATTACCTA	0.00159 ± 0.028
AGTTATAG	-0.135 ± 0.032
ACGTTTGA	0.106 ± 0.044
GCCAGAAC	-0.137 ± 0.047
CTTGGCAC	0.354 ± 0.022
CGGGTAGC	0.0184 ± 0.037
ATATAGCC	-0.196 ± 0.061
CTTGGCCA	-0.143 ± 0.012
AGCTTTAC	-0.0306 ± 0.0074
AGGAAGAA	-0.0826 ± 0.038
GAAAGAAC	-0.155 ± 0.055
ACGGGGAC	-0.12 ± 0.097
CGTTGACA	0.414 ± 0.0098
GCCCAGCA	-0.0687 ± 0.0064
AGTGAGAG	0.3 ± 0.0092
CAGAGACG	-0.143 ± 0.044
AGATAACC	-0.165 ± 0.044
ACTACCAA	-0.0551 ± 0.038
ACCGCGGA	-0.0813 ± 0.0024
ATGGCCGG	-0.25 ± 0.017

Sequence	PBM E-score of 8-mer
CCCGCTCA	0.0295 ± 0.12
AGAAGGAG	-0.205 ± 0.082
GAGTGATA	0.159 ± 0.05
AACGCCAA	0.137 ± 0.0054
GACTGGCA	-0.0276 ± 0.083
AGCAATCG	0.0752 ± 0.012
CAATTGGG	-0.141 ± 0.014
AGGATTGA	-0.0132 ± 0.059
CTGGGCGC	0.158 ± 0.046
ACCCAATC	-0.142 ± 0.094
AGAACCAA	-0.11507 ± 4.2e-05
CTCTCTGA	-0.232 ± 0.017
CTAACCGA	-0.116 ± 0.024
CATTGTTA	0.079 ± 0.066
CCTTCGCG	0.282 ± 0.036
CGCATGGA	-0.171 ± 0.03
CATTATGG	0.0383 ± 0.046
ATCTTGTC	0.00987 ± 0.039
CATTCCAG	-0.221 ± 0.019
GGAACCCA	-0.181 ± 0.0065
AGTGTGGC	0.33 ± 0.014
ATGTGGCC	-0.12 ± 0.073
CAAAACCG	0.0517 ± 0.016
GATCGAGA	0.00394 ± 0.097
AGACAGAG	-0.2 ± 0.0093

Sequence	PBM E-score of 8-mer
ATGCAGCC	-0.131 ± 0.033
CGGAATGA	-0.133 ± 0.016
AAGCGAGG	0.115 ± 0.03
CGACACAC	0.217 ± 0.038
ATACGGTC	-0.0883 ± 0.059
ATTGCGCA	-0.0884 ± 0.043
ATTGGTTC	-0.115 ± 0.07
GGACTCGA	-0.26 ± 0.13
TACCACGA	-0.00786 ± 0.00088
CGAAGCTC	-0.151 ± 0.05
GGCTTCTA	-0.319 ± 0.012
ACACCACC	0.365 ± 0.0069
GCCATTCC	0.0498 ± 0.0052
ATTCTGTG	-0.0566 ± 0.036
GACCGCTA	-0.224 ± 0.056
TAACATAA	0.0343 ± 0.02
CCTTCATC	-0.0778 ± 0.034
GGTATAAA	-0.187 ± 0.033
GAATGCTA	0.117 ± 0.012
CGGCAACC	-0.0907 ± 0.046
AGGGAAAT	-0.171 ± 0.022
ACTACTTC	-0.0578 ± 0.031
CAGTCTAC	-0.177 ± 0.035
GATATATA	0.0251 ± 0.046
CGCTATGC	-0.0429 ± 0.048

Sequence	PBM E-score of 8-mer
TGCTCTAA	-0.3265 ± 0.0019
AGGCGCAG	0.0482 ± 0.081
GTGCCACA	0.255 ± 0.0037
ATGTTGCA	-0.00245 ± 0.0042
AAAGGTCA	-0.271 ± 0.0056
GGGACGAC	-0.195 ± 0.0086
AGCGACGA	0.167 ± 0.064
TACCATAA	-0.0714 ± 0.024
TACAATAA	-0.244 ± 0.09
AGAGACCG	-0.117 ± 0.063
GCCCAATA	-0.142 ± 0.1
ATTGTCAC	0.399 ± 0.013
CCTAACCA	-0.0548 ± 0.051
GGGTAGCA	0.079 ± 0.046
TCACCAGA	0.122 ± 0.012
CCCCGCTA	0.0351 ± 0.065
GGTCGTTA	0.0944 ± 0.048
CATCCGAA	-0.263 ± 0.013
CGGCCGTC	-0.00995 ± 0.014
CACTGCCC	0.0524 ± 0.059
AGGCGGCG	-0.0129 ± 0.034
AAAGCGGA	-0.176 ± 0.057
CTTGGAGC	-0.17 ± 0.054
GCACCTCC	0.396 ± 0.013
CATGGAGC	-0.275 ± 0.048

Sequence	PBM E-score of 8-mer
GCCGTATA	-0.237 ± 0.045
CGTTAAAA	0.0585 ± 0.1
ACTATCCC	-0.145 ± 0.014
CGGGTAAG	-0.026 ± 0.015
ACCCCCGG	-0.155 ± 0.0082
GGAACACA	0.0712 ± 0.075
AAGAGCGC	-0.0972 ± 0.037
ACAGTAGC	0.14 ± 0.0063
GATTGCAA	-0.0515 ± 0.087
AGATGCGC	-0.042 ± 0.0083
ACTATAAC	0.0539 ± 0.046
CGAACTAC	0.0447 ± 0.036
CTGAGAGC	-0.134 ± 0.025
AGAGGTCC	-0.0898 ± 0.045
GCCGACGA	0.0285 ± 0.017
ACGTAGAC	0.03 ± 0.015
CGATTCGC	0.261 ± 0.029
CCAAGAAG	-0.183 ± 0.082
CCGCATAA	-0.25 ± 0.0057
AAATCTTA	-0.0137 ± 0.04
CTTTCGTC	-0.0317 ± 0.022
ACTATTCG	0.0973 ± 0.022
CTGACATA	-0.0395 ± 0.064
CGGCACTA	-0.0878 ± 0.018
ACCGAGCC	-0.0839 ± 0.099

Sequence	PBM E-score of 8-mer
TACTAGGA	-0.158 ± 0.019
CCAATCGG	-0.175 ± 0.058
AGGACACT	-0.00903 ± 0.01
AGAAAAGC	-0.141 ± 0.095
GACGAGAA	0.117 ± 0.005
GGCGCACA	0.0799 ± 0.062
CGTAAAGC	-0.1 ± 0.022
TAATATCA	-0.116 ± 0.1
CTCATCCA	-0.064 ± 0.12
TTGGGAAA	-0.165 ± 0.096
ATCTTACA	-0.114 ± 0.044
CCCGGTAG	-0.0271 ± 0.13
CGGGTTAC	-0.117 ± 0.041
ACTTTGCT	0.0326 ± 0.0055
TAAGGTAA	-0.107 ± 0.0024
GCTGCAGC	-0.0128 ± 0.073
GCGGATTA	-0.0408 ± 0.023
AACGGATC	0.0408 ± 0.11
CGATTAGC	-0.0565 ± 0.091
ATCATTCA	-0.0506 ± 0.022
CGCTAGAG	0.0489 ± 0.072
CTTCAGGC	-0.178 ± 0.019

Source: the supplement of paper PMC4166925
